# In the supplement of paper PMC3334620:
# Over roughly 33,000 sequences, “E-score (-0.5 to 0.5)” has its median near -0.054; the highest 2% begin near 0.35. This is one part of the list.
# Target: T1, Stb5 (UniProt P38699)
# T1 sequence: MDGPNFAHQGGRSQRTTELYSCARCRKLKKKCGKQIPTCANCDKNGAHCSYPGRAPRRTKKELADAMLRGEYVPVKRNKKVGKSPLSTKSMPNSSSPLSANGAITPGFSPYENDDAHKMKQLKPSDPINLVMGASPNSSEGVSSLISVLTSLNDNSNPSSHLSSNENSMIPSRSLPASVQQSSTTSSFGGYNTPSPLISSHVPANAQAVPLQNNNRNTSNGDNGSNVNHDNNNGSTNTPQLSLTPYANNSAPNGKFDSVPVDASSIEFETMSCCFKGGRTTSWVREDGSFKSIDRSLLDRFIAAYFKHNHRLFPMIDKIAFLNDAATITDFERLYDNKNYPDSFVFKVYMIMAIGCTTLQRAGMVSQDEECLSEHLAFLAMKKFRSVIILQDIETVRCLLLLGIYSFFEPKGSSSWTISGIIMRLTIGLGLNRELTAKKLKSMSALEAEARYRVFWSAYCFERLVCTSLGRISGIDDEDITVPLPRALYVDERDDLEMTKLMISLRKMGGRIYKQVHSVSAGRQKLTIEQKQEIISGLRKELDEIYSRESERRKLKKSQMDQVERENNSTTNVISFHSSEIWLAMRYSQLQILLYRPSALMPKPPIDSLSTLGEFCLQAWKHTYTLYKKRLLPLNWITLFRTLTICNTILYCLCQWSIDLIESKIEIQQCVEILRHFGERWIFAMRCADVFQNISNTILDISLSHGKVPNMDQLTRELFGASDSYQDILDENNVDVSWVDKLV
# Test: PBM E-score (8-mer binding enrichment) (E-score (-0.5 to 0.5)); higher = stronger / more preferred TF binding; most listed sequences are background and not binding sites
# Details: protein concentration: 200 nM; construct: GST-full length
# In short: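 Yeast transcription factors, full-length or as DNA-binding domains, were expressed with a GST tag using PURExpress in vitro transcription/translation. At about 100-200 nM they were applied to universal all-10-mer Agilent arrays, double-stranded by primer extension on fresh or once-stripped slides. Fluorescent anti-GST detected bound protein, and masliner normalised the scans. E-scores for ungapped eight-base words, pooled with reverse complements, came from the Universal PBM Analysis Suite.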
row,Sequence,PBM E-score
1,CAACAATC,-0.18
2,TAGGCCGA,0.125
3,CTTATTTA,0.0282
4,CCAATACC,0.261
5,GCACCGGA,0.338
6,CGAGTGGA,-0.107
7,CTGTTTTA,0.174
8,CAACATGC,0.0202
9,AAAAGGTC,-0.0621
10,TACATATA,0.0481
11,CCATCTTC,-0.0469
12,TCACAGGA,-0.188
13,TGTTGTAA,-0.125
14,AGACTAGA,-0.17
15,GGTCCGAA,0.328
16,ACACCAAC,-0.142
17,GCGGAACC,0.159
18,ACGCTACA,-0.221
19,CAACGTGA,-0.147
20,ATGATGCG,-0.12
21,CCGCGCCG,0.288
22,CCCGAGTC,0.0364
23,AATCCTTC,-0.0568
24,CACACCAC,-0.199
25,TACGTTCA,-0.255

row,Sequence,PBM E-score
1,AAACTGCG,0.209
2,ATGCGCGG,0.309
3,GTTTGTTA,0.0212
4,ATGGCAGA,0.00567
5,ATTGATCG,0.12
6,CTAGTCGC,-0.00949
7,CAGGAACA,-0.216
8,CTAGACAA,-0.0874
9,GACGTGAA,-0.129
10,AACTAGCC,-0.148
11,GAAGCGGC,0.308
12,AGGGGGGC,-0.15
13,ACGGCCCC,0.0517
14,ACAGCAAG,-0.258
15,ATTTACAA,-0.174
16,TCCGTCAA,0.229
17,ATAACTTG,-0.112
18,AATTTCAG,-0.311
19,AATAACCG,0.272
20,CCTTGCCC,-0.0119
21,AAAACTTA,-0.196
22,AGCCAAGG,-0.302
23,AGCTAGAC,-0.127
24,CTACCCTC,-0.209
25,ACCAGCAA,0.0414

row,Sequence,PBM E-score
1,ACGAGCCT,-0.2
2,AGCGTATC,-0.134
3,GCCCTCGA,-0.214
4,CGTAGGCC,-0.0749
5,GATTGGCA,-0.187
6,TCAATCCA,-0.0437
7,CTAAGCAG,-0.121
8,ATGGGTTG,-0.292
9,GCACCCAA,0.0215
10,GTCATGTA,0.0223
11,GCGATCAA,-0.0153
12,ATGAGATA,-0.209
13,CCGGTCCG,0.295
14,CCCGTCTC,0.308
15,TCCGAGGA,0.157
16,GGACTTAC,0.358
17,AGACATAC,-0.141
18,AGAGGCAT,-0.142
19,CCAGCAAC,-0.052
20,CGGATTTA,0.452
21,AGCGTCCG,0.103
22,AGTGTGAA,-0.153
23,GAATGTTA,0.06
24,ATGCATCG,0.0654
25,AAAGAGAC,-0.0831

row,Sequence,PBM E-score
1,ACGGCGAC,0.264
2,AATTTAGG,-0.0554
3,AAGCATAA,-0.106
4,GATGCTAA,0.0589
5,ACTCCGGC,0.307
6,ATCGTAGC,-0.217
7,GACAACTA,-0.06
8,ACTTGACC,-0.0754
9,ACCGTGAC,0.254
10,CGTGGTAC,-0.0493
11,TCCATACA,-0.157
12,AAAAATGG,0.00569
13,TATTTCCA,0.123
14,AAGCGTTG,-0.212
15,CTATAGCA,-0.0419
16,AGGAGAGC,-0.216
17,AGAAGACA,-0.199
18,CGGAGCCC,0.0294
19,ATACAGTA,-0.0999
20,CCGGGCAG,0.14
21,CAGCCGCG,0.0138
22,CAGTCGTC,-0.13
23,CATCGAGC,-0.00818
24,CTCCGGTC,0.308
25,GAATGGCC,0.0263

row,Sequence,PBM E-score
1,CCTCCTGA,-0.105
2,CTACTTAA,-0.173
3,CATTCAAG,-0.205
4,AGTCCTAG,-0.238
5,CCTCCGTA,0.184
6,GAGTATGC,-0.0395
7,GACACGTA,-0.103
8,GGCTCACA,-0.0687
9,AGCGTCTC,-0.21
10,AAGGACCG,0.383
11,CAGCGTAG,-0.0828
12,CATGTCGG,0.275
13,ACAGTCGG,0.282
14,CTTAGTTA,-0.152
15,GGATGACA,-0.105
16,ATCCAAGG,-0.0257
17,AGTCCTAA,-0.218
18,TAACACGA,-0.00801
19,TGGACTAA,-0.0846
20,ACACACGT,-0.161
21,AGCAAAAA,-0.0919
22,ACGTAATC,-0.0967
23,CTTCCGTA,0.107
24,ACTATCGG,0.299
25,CAATGTCA,-0.215

row,Sequence,PBM E-score
1,CCGAGGCG,0.175
2,TCACGGCA,0.137
3,CCACATCA,-0.0508
4,ACTCTGTG,-0.0679
5,ACCCCTGA,-0.108
6,AACCCCGG,0.453
7,ATGGATTC,-0.299
8,AATTGAGT,-0.167
9,CGGTGCCC,0.27
10,AAAAAAGT,-0.0146
11,CTGTAACA,-0.198
12,AAGGTCAT,-0.0505
13,ACTTCACT,-0.213
14,AGTTGGCA,-0.271
15,AATAAGGA,-0.12
16,ATTTAAAG,0.197
17,GTGATAGA,0.081
18,GCAATGAA,-0.113
19,GCGGAAGC,0.0861
20,CTGGGACC,-0.117
21,CCGCGATC,0.313
22,CTGCTCAA,-0.16
23,GGCAAGCA,-0.281
24,ACTGTGAC,-0.142
25,AACCATAG,-0.146

row,Sequence,PBM E-score
1,CATTCCAC,0.0385
2,AACTCCAG,-0.0878
3,GGCTTAGA,-0.0994
4,ACAATCCA,-0.238
5,AACTTAGC,-0.238
6,AGATAAAG,0.0838
7,ATGACTCG,-0.138
8,ACACGAGC,-0.2
9,GGATTGCC,0.0199
10,ATTTAAAT,-0.117
11,CAAGCATG,-0.252
12,AATCGGGC,0.209
13,ACCTTAAT,0.0412
14,CAATTCAA,-0.261
15,CTAACGGC,0.135
16,CGACGGGC,0.308
17,CATTCGCG,0.0611
18,TCCGATCA,0.269
19,GTCAGTGA,-0.0219
20,CACTACGG,0.138
21,ACGACGGC,0.146
22,ACATATAT,0.106
